Measured values reported in the supplement of paper PMC8728848.
The other results are listed elsewhere or left out.

Tests used:
Test in all cases: glycan array binding signal (z-score within array); higher = stronger binding
Settings in all cases: glycan notation: IUPAC condensed, linker removed
[1] = molecular target: Neu5Ac(a2-3)[GalNAc(b1-4)]Gal(b1-4)Glc
How it was run: (§1)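 Arrays were curated from the Consortium for Functional Glycomics database, 3228 in total, and kept only where the protein sequence was available. Binding is expressed as a within-array Z-score. This score was averaged across arrays of the same protein sequence at different concentrations or buffers and across linkers, and negative values can be read as non-binding.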

[2] = molecular target: Neu5Ac(a2-3)[GalNAc(b1-4)]Gal(b1-4)GlcNAc
How it was run: as §1

[3] = molecular target: Neu5Ac(a2-3)[GalNAc(b1-4)]Gal(b1-4)GlcNAc(b1-3)GalNAc
How it was run: as §1

[4] = molecular target: Neu5Ac(a2-3)[Neu5Ac(a2-6)]GalNAc
How it was run: as §1

Neu5Ac(a2-6)Gal = molecular target: Neu5Ac(a2-6)Gal
How it was run: as §1

[5] = molecular target: Neu5Ac(a2-6)Gal(b1-3)GlcNAc(b1-3)[Gal(b1-4)GlcNAc(b1-6)]Gal(b1-4)Glc
How it was run: as §1

Neu5Ac(a2-6)Gal(b1-4)Glc = molecular target: Neu5Ac(a2-6)Gal(b1-4)Glc
How it was run: as §1

[6] = molecular target: Neu5Ac(a2-6)Gal(b1-4)GlcNAc
How it was run: as §1

[7] = molecular target: Neu5Ac(a2-6)Gal(b1-4)GlcNAc(b1-2)Man
How it was run: as §1

[8] = molecular target: Neu5Ac(a2-6)Gal(b1-4)GlcNAc(b1-2)Man(a1-3)Man(b1-4)GlcNAc(b1-4)GlcNAc
How it was run: as §1

[9] = molecular target: Neu5Ac(a2-6)Gal(b1-4)GlcNAc(b1-2)Man(a1-3)[Gal(b1-4)GlcNAc(b1-2)Man(a1-6)]Man(b1-4)GlcNAc(b1-4)GlcNAc
How it was run: as §1

[10] = molecular target: Neu5Ac(a2-6)Gal(b1-4)GlcNAc(b1-2)Man(a1-3)[GlcNAc(b1-2)Man(a1-6)]Man(b1-4)GlcNAc(b1-4)GlcNAc
How it was run: as §1

[11] = molecular target: Neu5Ac(a2-6)Gal(b1-4)GlcNAc(b1-2)Man(a1-3)[GlcNAc(b1-2)Man(b1-4)GlcNAc(b1-2)Man(a1-6)]Man(b1-4)GlcNAc(b1-4)GlcNAc
How it was run: as §1

[12] = molecular target: Neu5Ac(a2-6)Gal(b1-4)GlcNAc(b1-2)Man(a1-3)[GlcNAc(b1-4)][Neu5Ac(a2-6)Gal(b1-4)GlcNAc(b1-2)Man(a1-6)]Man(b1-4)GlcNAc(b1-4)GlcNAc
How it was run: as §1

[13] = molecular target: Neu5Ac(a2-6)Gal(b1-4)GlcNAc(b1-2)Man(a1-3)[Man(a1-6)]Man(b1-4)GlcNAc(b1-4)GlcNAc
How it was run: as §1

[14] = molecular target: Neu5Ac(a2-6)Gal(b1-4)GlcNAc(b1-2)Man(a1-3)[Neu5Ac(a2-3)Gal(b1-4)GlcNAc(b1-2)Man(a1-6)]Man(b1-4)GlcNAc(b1-4)GlcNAc
How it was run: as §1

[15] = molecular target: Neu5Ac(a2-6)Gal(b1-4)GlcNAc(b1-2)Man(a1-3)[Neu5Ac(a2-6)Gal(b1-4)GlcNAc(b1-2)Man(a1-6)]Man(b1-4)GlcNAc(b1-4)GlcNAc
How it was run: as §1

[16] = molecular target: Neu5Ac(a2-6)Gal(b1-4)GlcNAc(b1-2)Man(a1-3)[Neu5Ac(a2-6)Gal(b1-4)GlcNAc(b1-2)Man(a1-6)]Man(b1-4)GlcNAc(b1-4)[Fuc(a1-6)]GlcNAc
How it was run: as §1

[17] = molecular target: Neu5Ac(a2-6)Gal(b1-4)GlcNAc(b1-2)Man(a1-6)Man(b1-4)GlcNAc(b1-4)GlcNAc
How it was run: as §1

[18] = molecular target: Neu5Ac(a2-6)Gal(b1-4)GlcNAc(b1-2)Man(a1-6)[Gal(b1-4)GlcNAc(b1-2)Man(a1-3)]Man(b1-4)GlcNAc(b1-4)GlcNAc
How it was run: as §1

[19] = molecular target: Neu5Ac(a2-6)Gal(b1-4)GlcNAc(b1-2)Man(a1-6)[GlcNAc(b1-2)Man(a1-3)]Man(b1-4)GlcNAc(b1-4)GlcNAc
How it was run: as §1

[20] = molecular target: Neu5Ac(a2-6)Gal(b1-4)GlcNAc(b1-2)Man(a1-6)[Man(a1-3)]Man(b1-4)GlcNAc(b1-4)GlcNAc
How it was run: as §1

[21] = molecular target: Neu5Ac(a2-6)Gal(b1-4)GlcNAc(b1-2)[Neu5Ac(a2-6)Gal(b1-4)GlcNAc(b1-4)]Man(a1-3)[GlcNAc(b1-4)][Neu5Ac(a2-6)Gal(b1-4)GlcNAc(b1-2)[Neu5Ac(a2-6)Gal(b1-4)GlcNAc(b1-6)]Man(a1-6)]Man(b1-4)GlcNAc(b1-4)GlcNAc
How it was run: as §1

[22] = molecular target: Neu5Ac(a2-6)Gal(b1-4)GlcNAc(b1-2)[Neu5Ac(a2-6)Gal(b1-4)GlcNAc(b1-4)]Man(a1-3)[GlcNAc(b1-4)][Neu5Ac(a2-6)Gal(b1-4)GlcNAc(b1-4)Man(a1-6)]Man(b1-4)GlcNAc(b1-4)GlcNAc
How it was run: as §1

[23] = molecular target: Neu5Ac(a2-6)Gal(b1-4)GlcNAc(b1-2)[Neu5Ac(a2-6)Gal(b1-4)GlcNAc(b1-6)]Man(a1-6)[Neu5Ac(a2-6)Gal(b1-4)GlcNAc(b1-2)Man(a1-3)][GlcNAc(b1-4)]Man(b1-4)GlcNAc(b1-4)GlcNAc
How it was run: as §1

[24] = molecular target: Neu5Ac(a2-6)Gal(b1-4)GlcNAc(b1-3)Gal(b1-3)GlcNAc
How it was run: as §1

[25] = molecular target: Neu5Ac(a2-6)Gal(b1-4)GlcNAc(b1-3)Gal(b1-4)GlcNAc
How it was run: as §1

[26] = molecular target: Neu5Ac(a2-6)Gal(b1-4)GlcNAc(b1-3)Gal(b1-4)GlcNAc(b1-2)Man(a1-3)[Neu5Ac(a2-6)Gal(b1-4)GlcNAc(b1-3)Gal(b1-4)GlcNAc(b1-2)Man(a1-6)]GalNAc
How it was run: as §1

[27] = molecular target: Neu5Ac(a2-6)Gal(b1-4)GlcNAc(b1-3)Gal(b1-4)GlcNAc(b1-3)Gal(b1-4)GlcNAc
How it was run: as §1

[28] = molecular target: Neu5Ac(a2-6)Gal(b1-4)GlcNAc(b1-3)Gal(b1-4)GlcNAc(b1-3)Gal(b1-4)GlcNAc(b1-2)Man(a1-3)[Neu5Ac(a2-6)Gal(b1-4)GlcNAc(b1-3)Gal(b1-4)GlcNAc(b1-3)Gal(b1-4)GlcNAc(b1-2)Man(a1-6)]GalNAc
How it was run: as §1

[29] = molecular target: Neu5Ac(a2-6)Gal(b1-4)GlcNAc(b1-3)Gal(b1-4)GlcNAc(b1-3)GalNAc
How it was run: as §1

[30] = molecular target: Neu5Ac(a2-6)Gal(b1-4)GlcNAc(b1-3)Gal(b1-4)GlcNAc(b1-3)[Neu5Ac(a2-6)Gal(b1-4)GlcNAc(b1-3)Gal(b1-4)GlcNAc(b1-6)]GalNAc
How it was run: as §1

[31] = molecular target: Neu5Ac(a2-6)Gal(b1-4)GlcNAc(b1-3)Gal(b1-4)GlcNAc(b1-6)[Gal(b1-3)]GalNAc
How it was run: as §1

[32] = molecular target: Neu5Ac(a2-6)Gal(b1-4)GlcNAc(b1-3)Gal(b1-4)[Fuc(a1-3)]GlcNAc(b1-3)Gal(b1-4)[Fuc(a1-3)]GlcNAc
How it was run: as §1

[33] = molecular target: Neu5Ac(a2-6)Gal(b1-4)GlcNAc(b1-3)GalNAc
How it was run: as §1

[34] = molecular target: Neu5Ac(a2-6)Gal(b1-4)GlcNAc(b1-3)[Neu5Ac(a2-6)Gal(b1-4)GlcNAc(b1-6)]GalNAc
How it was run: as §1

[35] = molecular target: Neu5Ac(a2-6)Gal(b1-4)GlcNAc(b1-6)GalNAc
How it was run: as §1

[36] = molecular target: Neu5Ac(a2-6)Gal(b1-4)GlcNAc(b1-6)[Gal(b1-3)GlcNAc(b1-3)]Gal(b1-4)Glc
How it was run: as §1

B1: HPA (Helix pomatia), Q575S3 (protein)
chain: MWAHLTGLLLICALSLSAAQRAQTGEIDCGSDSSWPKDPSDNPNRDNTREIVKHVTFSPQFCREPKVILSVTTLDAEHTKNLRYEARLKSVSPSGLSASCYSWHDGTIYRMKLSWLAVED
- glycan array binding signal (z-score) [1]: 0.07
- glycan array binding signal (z-score) [2]: -0.104
- glycan array binding signal (z-score) [3]: -0.2
- glycan array binding signal (z-score) [4]: -0.263
- glycan array binding signal (z-score) (Neu5Ac(a2-6)Gal): -0.258
- glycan array binding signal (z-score) [5]: -0.25
- glycan array binding signal (z-score) (Neu5Ac(a2-6)Gal(b1-4)Glc): -0.262
- glycan array binding signal (z-score) [6]: -0.262
- glycan array binding signal (z-score) [7]: -0.251
- glycan array binding signal (z-score) [8]: -0.265
- glycan array binding signal (z-score) [9]: -0.261
- glycan array binding signal (z-score) [10]: -0.251
- glycan array binding signal (z-score) [11]: -0.277
- glycan array binding signal (z-score) [12]: -0.263
- glycan array binding signal (z-score) [13]: -0.27
- glycan array binding signal (z-score) [14]: -0.254
- glycan array binding signal (z-score) [15]: -0.254
- glycan array binding signal (z-score) [16]: -0.259
- glycan array binding signal (z-score) [17]: -0.27
- glycan array binding signal (z-score) [18]: -0.291
- glycan array binding signal (z-score) [19]: -0.257
- glycan array binding signal (z-score) [20]: -0.266
- glycan array binding signal (z-score) [21]: -0.254
- glycan array binding signal (z-score) [22]: -0.258
- glycan array binding signal (z-score) [23]: -0.264
- glycan array binding signal (z-score) [24]: -0.266
- glycan array binding signal (z-score) [25]: -0.263
- glycan array binding signal (z-score) [26]: -0.243
- glycan array binding signal (z-score) [27]: -0.264
- glycan array binding signal (z-score) [28]: -0.164
- glycan array binding signal (z-score) [29]: -0.255
- glycan array binding signal (z-score) [30]: -0.147
- glycan array binding signal (z-score) [31]: -0.238
- glycan array binding signal (z-score) [32]: -0.253
- glycan array binding signal (z-score) [33]: -0.07
- glycan array binding signal (z-score) [34]: -0.258
- glycan array binding signal (z-score) [35]: -0.246
- glycan array binding signal (z-score) [36]: -0.261
